# Data published in the supplement of paper PMC8728848.
# Some of the results follow.
# B1: GSL-I-B4 (Griffonia simplicifolia) (protein)
# chain: NFWSDVEDSIIFQGDANTTAGTLQLCKTNQYGTPLQWSAGRALYSDPVQLWDNKTESVASFYTEFTFFLKITGNGPADGLAFFLAPPDSDVKDAGEYLGLFNKSTATQPSKNQVVAVEFDTWTNPNFPEPSYRHIGINVNSIVSVATKRWEDSDIFSGKIATARISYDGSAEILTVVLSYPDGSDYILSHSVDMRQNLPESVRVGISASTGNNQFLTVYILSWRFSSNLQSTSVKAAMEPEITRTVV
# Key:
# Experiment in all cases: glycan array binding signal (z-score within array); higher = stronger binding
# Settings in all cases: glycan notation: IUPAC condensed, linker removed
# [1] = biological target: Fuc(a1-2)Gal
# Summary of the method: (§1)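 The Consortium for Functional Glycomics database supplied 3228 glycan arrays, of which those lacking an available protein sequence were dropped. The binding signal, a within-array Z-score, was averaged across arrays of the same protein sequence and across linkers. Negative scores can be read as non-binding.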
# [2] = biological target: Fuc(a1-2)Gal(b1-3)GalNAc
# Summary of the method: as §1
# [3] = biological target: Fuc(a1-2)Gal(b1-3)GalNAc(a1-3)[Fuc(a1-2)]Gal(b1-4)Glc
# Summary of the method: as §1
# [4] = biological target: Fuc(a1-2)Gal(b1-3)GalNAc(a1-3)[Fuc(a1-2)]Gal(b1-4)GlcNAc
# Summary of the method: as §1
# [5] = biological target: Fuc(a1-2)Gal(b1-3)GalNAc(b1-3)Gal
# Summary of the method: as §1
# [6] = biological target: Fuc(a1-2)Gal(b1-3)GalNAc(b1-3)Gal(a1-4)Gal(b1-4)Glc
# Summary of the method: as §1
# [7] = biological target: Fuc(a1-2)Gal(b1-3)GalNAc(b1-4)[Neu5Ac(a2-3)]Gal(b1-4)Glc
# Summary of the method: as §1
# [8] = biological target: Fuc(a1-2)Gal(b1-3)GlcNAc
# Summary of the method: as §1
# [9] = biological target: Fuc(a1-2)Gal(b1-3)GlcNAc(b1-2)Man(a1-3)[Fuc(a1-2)Gal(b1-3)GlcNAc(b1-2)Man(a1-6)]Man(b1-4)GlcNAc(b1-4)GlcNAc
# Summary of the method: as §1
# [10] = biological target: Fuc(a1-2)Gal(b1-3)GlcNAc(b1-2)Man(a1-3)[Fuc(a1-2)Gal(b1-3)GlcNAc(b1-2)Man(a1-6)]Man(b1-4)GlcNAc(b1-4)[Fuc(a1-6)]GlcNAc
# Summary of the method: as §1
# [11] = biological target: Fuc(a1-2)Gal(b1-3)GlcNAc(b1-3)Gal(b1-4)Glc
# Summary of the method: as §1
# [12] = biological target: Fuc(a1-2)Gal(b1-3)GlcNAc(b1-3)GalNAc
# Summary of the method: as §1
# [13] = biological target: Fuc(a1-2)Gal(b1-3)GlcNAc(b1-3)[Fuc(a1-2)Gal(b1-3)GlcNAc(b1-6)]GalNAc
# Summary of the method: as §1
# [14] = biological target: Fuc(a1-2)Gal(b1-3)GlcNAc(b1-3)[Gal(b1-4)GlcNAc(b1-6)]Gal(b1-4)Glc
# Summary of the method: as §1
# [15] = biological target: Fuc(a1-2)Gal(b1-3)GlcNAc(b1-3)[Neu5Ac(a2-6)Gal(b1-4)GlcNAc(b1-6)]Gal(b1-4)Glc
# Summary of the method: as §1
# [16] = biological target: Fuc(a1-2)Gal(b1-3)GlcNAc6S
# Summary of the method: as §1
# [17] = biological target: Fuc(a1-2)Gal(b1-3)[Fuc(a1-4)]GlcNAc
# Summary of the method: as §1
# [18] = biological target: Fuc(a1-2)Gal(b1-3)[Fuc(a1-4)]GlcNAc(b1-2)Man(a1-3)[Fuc(a1-2)Gal(b1-3)[Fuc(a1-4)]GlcNAc(b1-2)Man(a1-3)]Man(b1-4)GlcNAc(b1-4)GlcNAc
# Summary of the method: as §1
# [19] = biological target: Fuc(a1-2)Gal(b1-3)[Fuc(a1-4)]GlcNAc(b1-2)Man(a1-3)[Fuc(a1-2)Gal(b1-3)[Fuc(a1-4)]GlcNAc(b1-2)Man(a1-6)]Man(b1-4)GlcNAc(b1-4)[Fuc(a1-6)]GlcNAc(b1-4)[Fuc(a1-6)]GlcNAc
# Summary of the method: as §1
# [20] = biological target: Fuc(a1-2)Gal(b1-3)[Fuc(a1-4)]GlcNAc(b1-3)[Fuc(a1-3)[Gal(b1-4)]GlcNAc(b1-6)]Gal(b1-4)Glc
# Summary of the method: as §1
# [21] = biological target: Fuc(a1-2)Gal(b1-3)[Fuc(a1-4)]GlcNAc(b1-3)[Gal(b1-4)GlcNAc(b1-6)]Gal(b1-4)Glc
# Summary of the method: as §1
# [22] = biological target: Fuc(a1-2)Gal(b1-4)Fuc(a1-3)]GlcNAc(b1-2)Man(a1-3)[Fuc(a1-2)Gal(b1-4)[Fuc(a1-3)]GlcNAc(b1-2)Man(a1-6)]Man(b1-4)GlcNAc(b1-4)GlcNAc
# Summary of the method: as §1
# [23] = biological target: Fuc(a1-2)Gal(b1-4)Glc
# Summary of the method: as §1
# [24] = biological target: Fuc(a1-2)Gal(b1-4)Glc6S
# Summary of the method: as §1
# [25] = biological target: Fuc(a1-2)Gal(b1-4)GlcNAc
# Summary of the method: as §1
# [26] = biological target: Fuc(a1-2)Gal(b1-4)GlcNAc(b1-2)Man
# Summary of the method: as §1
# [27] = biological target: Fuc(a1-2)Gal(b1-4)GlcNAc(b1-2)Man(a1-3)[Fuc(a1-2)Gal(b1-4)GlcNAc(b1-2)Man(a1-6)]Man(b1-4)GlcNAc(b1-4)GlcNAc
# Summary of the method: as §1
# [28] = biological target: Fuc(a1-2)Gal(b1-4)GlcNAc(b1-2)Man(a1-3)[Fuc(a1-2)Gal(b1-4)GlcNAc(b1-2)Man(a1-6)]Man(b1-4)GlcNAc(b1-4)[Fuc(a1-6)]GlcNAc
# Summary of the method: as §1
# [29] = biological target: Fuc(a1-2)Gal(b1-4)GlcNAc(b1-2)[Fuc(a1-2)Gal(b1-4)GlcNAc(b1-4)]Man(a1-3)[Fuc(a1-2)Gal(b1-4)GlcNAc(b1-2)Man(a1-6)]Man(b1-4)GlcNAc(b1-4)GlcNAc
# Summary of the method: as §1
# [30] = biological target: Fuc(a1-2)Gal(b1-4)GlcNAc(b1-3)Gal(b1-4)GlcNAc
# Summary of the method: as §1
# [31] = biological target: Fuc(a1-2)Gal(b1-4)GlcNAc(b1-3)Gal(b1-4)GlcNAc(b1-2)Man(a1-3)[Fuc(a1-2)Gal(b1-4)GlcNAc(b1-3)Gal(b1-4)GlcNAc(b1-2)Man(a1-6)]Man(b1-4)GlcNAc(b1-4)GlcNAc
# Summary of the method: as §1
# [32] = biological target: Fuc(a1-2)Gal(b1-4)GlcNAc(b1-3)Gal(b1-4)GlcNAc(b1-3)Gal(b1-4)GlcNAc
# Summary of the method: as §1
# [33] = biological target: Fuc(a1-2)Gal(b1-4)GlcNAc(b1-3)GalNAc
# Summary of the method: as §1
# [34] = biological target: Fuc(a1-2)Gal(b1-4)GlcNAc(b1-3)[Fuc(a1-2)Gal(b1-4)GlcNAc(b1-6)]GalNAc
# Summary of the method: as §1
# [35] = biological target: Fuc(a1-2)Gal(b1-4)GlcNAc(b1-3)[Fuc(a1-3)[Gal(b1-4)]GlcNAc(b1-6)]Gal(b1-4)Glc
# Summary of the method: as §1
# [36] = biological target: Fuc(a1-2)Gal(b1-4)GlcNAc(b1-6)GalNAc
# Summary of the method: as §1
# [37] = biological target: Fuc(a1-2)Gal(b1-4)GlcNAc6S
# Summary of the method: as §1
binder,measurement,setting,value
B1,glycan array binding signal (z-score),[1],-0.181
same,glycan array binding signal (z-score),[2],-0.188
same,glycan array binding signal (z-score),[3],-0.132
same,glycan array binding signal (z-score),[4],-0.109
same,glycan array binding signal (z-score),[5],-0.073
same,glycan array binding signal (z-score),[6],-0.165
same,glycan array binding signal (z-score),[7],-0.141
same,glycan array binding signal (z-score),[8],-0.161
same,glycan array binding signal (z-score),[9],-0.127
same,glycan array binding signal (z-score),[10],-0.145
same,glycan array binding signal (z-score),[11],-0.137
same,glycan array binding signal (z-score),[12],-0.152
same,glycan array binding signal (z-score),[13],-0.15
same,glycan array binding signal (z-score),[14],-0.155
same,glycan array binding signal (z-score),[15],-0.183
same,glycan array binding signal (z-score),[16],-0.205
same,glycan array binding signal (z-score),[17],-0.212
same,glycan array binding signal (z-score),[18],-0.14
same,glycan array binding signal (z-score),[19],-0.183
same,glycan array binding signal (z-score),[20],-0.163
same,glycan array binding signal (z-score),[21],-0.086
same,glycan array binding signal (z-score),[22],-0.128
same,glycan array binding signal (z-score),[23],-0.148
same,glycan array binding signal (z-score),[24],-0.131
same,glycan array binding signal (z-score),[25],-0.133
same,glycan array binding signal (z-score),[26],-0.172
same,glycan array binding signal (z-score),[27],-0.145
same,glycan array binding signal (z-score),[28],-0.221
same,glycan array binding signal (z-score),[29],-0.068
same,glycan array binding signal (z-score),[30],-0.215
same,glycan array binding signal (z-score),[31],-0.161
same,glycan array binding signal (z-score),[32],-0.148
same,glycan array binding signal (z-score),[33],-0.123
same,glycan array binding signal (z-score),[34],-0.183
same,glycan array binding signal (z-score),[35],-0.143
same,glycan array binding signal (z-score),[36],-0.172
same,glycan array binding signal (z-score),[37],-0.098
